Structures are written as SMILES. Among all 39,000 compounds or so, about 220 (0.56%) showed activity. The list shows a part of the results.
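Note: static incubation at 37 °C against the wild-type strain, values averaged over two biological replicates.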

In the assay the test system is Escherichia coli K-12 BW25113. As to the kind of experiment: relative growth (OD600 normalised to plate interquartile mean) (fraction); higher = less growth inhibition, active = 0.2 or less. The note with it: 50 µM; LB; incubation time: overnight (16-24 h).
In the case of `C[C@@H]1CN([C@H](C)CO)C(=O)c2cc(NC(=O)Cc3cn(C)c4ccccc34)ccc2O[C@H]1CN(C)S(C)(=O)=O`, the relative growth is inactive: 0.991.

In the case of `C[C@@H]1O[C@@H](Oc2c(-c3cc(O)c(O)c(O)c3)oc3cc(O)cc(O)c3c2=O)[C@H](O)[C@H](O)[C@H]1O`, the relative growth is inactive: 1.03.

Consider `Cc1noc(C)c1NC(=O)N(C)C[C@H]1Oc2c(NS(=O)(=O)c3cn(C)cn3)cccc2C(=O)N([C@@H](C)CO)C[C@@H]1C`, for which the relative growth is inactive: 1.03.

As for `COc1ccc(NC(=O)N(C)C[C@@H]2OCc3cnnn3CCCC(=O)N([C@H](C)CO)C[C@@H]2C)c(OC)c1`, the relative growth is inactive: 1.02.

As for `O=C(CN1CCOCC1)NCC[C@H]1CC[C@H](NS(=O)(=O)c2ccc(Cl)cc2)[C@H](CO)O1`, the relative growth was inactive: 1.01.

As to `CCc1nc2ccc(C(=O)Nc3cccc(OCC(=O)N(C)C)c3)cn2c1N(C)C(=O)c1ccncc1`, the relative growth is inactive: 0.989.

As to `C=CCOC(=O)C1=C[C@@H](c2cn(C(C)=O)c3ccccc23)C[C@@H](OCc2ccc(COC(=O)NCCCCCC(=O)NO)cc2)O1`, the relative growth is inactive: 0.984.

In the case of `CCCNC(=O)[C@@H]1[C@@H](CO)[C@@H]2Cn3c(ccc(-c4ccccc4OC)c3=O)[C@@H]2N1S(C)(=O)=O`, the relative growth was inactive: 1.

In the case of `C[C@@H]1CN([C@H](C)CO)C(=O)c2cc(NC(=O)Nc3ccc(C(F)(F)F)cc3)ccc2O[C@@H](C)CCCCO[C@H]1CN(C)C`, the relative growth is inactive: 0.952.

On to `Cc1noc(C)c1S(=O)(=O)Nc1ccc2c(c1)C(=O)N([C@H](C)CO)C[C@H](C)[C@H](CN(C)C(=O)Nc1cccc3ccccc13)OCCCC[C@@H](C)O2`, for which the relative growth was inactive: 0.996.

As to `OCCNC(=S)NC1CCCC1`, the relative growth is inactive: 1.02.

Turning to `Cc1ccc(S(=O)(=O)N(C)C[C@@H]2Oc3c(NC(=O)c4cc(C)nn4C)cccc3C(=O)N([C@@H](C)CO)C[C@H]2C)cc1`, the relative growth is inactive: 1.01.

Consider `Cc1ccc(S(=O)(=O)N(C)C[C@H]2OCCCC[C@@H](C)Oc3ccc(NC(=O)Nc4c(C)noc4C)cc3C(=O)N([C@@H](C)CO)C[C@H]2C)cc1`, for which the relative growth is inactive: 0.977.

On to `C[C@H]1CCCCO[C@@H](CN(C)S(=O)(=O)c2ccccc2)[C@@H](C)CN([C@@H](C)CO)C(=O)c2cc(NC(=O)CCC(F)(F)F)ccc2O1`, for which the relative growth was inactive: 0.979.

For `COc1ccc(Cc2nn[nH]n2)cc1`, the relative growth was inactive: 1.

In the case of `C[C@@H]1CN([C@H](C)CO)C(=O)c2cc(NS(=O)(=O)c3ccccc3)ccc2O[C@@H]1CN(C)Cc1ccc(Oc2ccccc2)cc1`, the relative growth was inactive: 0.997.

Regarding `O=C(OCc1ccccc1)c1cccnc1`, the relative growth is inactive: 0.814.

In the case of `Cc1ccc(S(=O)(=O)N(C)C[C@H]2Oc3ccc(NC(=O)Cn4cnnn4)cc3C(=O)N([C@H](C)CO)C[C@@H]2C)cc1`, the relative growth was inactive: 1.

Turning to `COc1ccc2c3c(n(c2c1)C)[C@@H](CO)N(C[C@]13CN(C1)S(=O)(=O)C)C(=O)CN(C)C`, the relative growth was inactive: 1.

On to `O=C(Nn1cnnc1)c1ccccc1`, for which the relative growth was inactive: 1.05.

On to `C[C@H](CO)N1C[C@H](C)[C@H](CN(C)S(=O)(=O)c2ccccc2)Oc2ccc(NC(=O)Nc3cccc4ccccc34)cc2C1=O`, for which the relative growth was inactive: 1.03.

Regarding `COc1ccc(CN(C)C[C@@H]2OCCCC[C@H](C)Oc3ccc(NS(=O)(=O)c4cccs4)cc3C(=O)N([C@@H](C)CO)C[C@H]2C)cc1`, the relative growth is inactive: 1.01.

Take `COc1ccc(S(=O)(=O)Nc2ccc3c(c2)CC(=O)N([C@@H](C)CO)C[C@@H](C)[C@@H](CN(C)Cc2ccncc2)O3)cc1`: the relative growth is inactive: 0.981.

Take `COc1ccc(NC(=O)Nc2ccc3c(c2)C(=O)N([C@@H](C)CO)C[C@H](C)[C@H](CN(C)CC2CCCCC2)OCCCC[C@H](C)O3)cc1`: the relative growth is inactive: 0.963.

On to `CN1C(=O)c2cc(NS(=O)(=O)c3ccc(F)cc3)ccc2OC[C@@H]2O[C@H](CC(=O)NCC(F)(F)F)CC[C@@H]21`, for which the relative growth is inactive: 0.988.

With `C[C@@H]1CN([C@H](C)CO)C(=O)c2cc(NS(=O)(=O)c3cn(C)cn3)ccc2O[C@@H](C)CCCCO[C@@H]1CN(C)S(C)(=O)=O`, the relative growth is inactive: 0.989.

On to `C[C@H]1CN([C@@H](C)CO)C(=O)c2cc(NS(C)(=O)=O)ccc2O[C@H]1CN(C)Cc1ccc2c(c1)OCO2`, for which the relative growth is inactive: 1.01.

`C[C@@H]1CCCCO[C@H](CN(C)C(=O)Nc2ccccc2)[C@@H](C)CN([C@H](C)CO)C(=O)c2cc(NC(=O)Nc3ccc(C(F)(F)F)cc3)ccc2O1`: the relative growth was inactive: 1.01.

Turning to `CCOC(=O)[C@H](Cc1c[nH]c2ccccc12)NC(=O)Cn1cc(CN2C(=O)COC[C@H]2c2ccccc2)nn1`, the relative growth was inactive: 1.01.

As to `C[C@@H]1CN([C@H](C)CO)S(=O)(=O)c2ccc(C3=CCCC3)cc2O[C@@H]1CN(C)C(=O)C1CCOCC1`, the relative growth was inactive: 1.

`COc1ccc(S(=O)(=O)N(C)C[C@@H]2OCCCC[C@@H](C)Oc3ccc(NC(=O)C4CCCCC4)cc3C(=O)N([C@H](C)CO)C[C@H]2C)cc1`: the relative growth was inactive: 1.03.

Consider `C[C@@H]1CN([C@@H](C)CO)C(=O)c2cc(C#C[C@@H](C)O)cnc2O[C@@H]1CN(C)C(=O)Nc1ccc(C(F)(F)F)cc1`, for which the relative growth is inactive: 1.

As to `Oc1ccc([C@@H]2C=CCC2)cc1`, the relative growth was inactive: 0.947.

`CC(C)C(N)C(=O)OCC(CO)OCn1cnc2c(=O)[nH]c(N)nc21.Cl` (stereo not given): the relative growth was inactive: 1.13.

Consider `C[C@@H]1CN([C@H](C)CO)C(=O)c2cccc(NS(C)(=O)=O)c2O[C@H]1CN(C)C(=O)Nc1ccc2c(c1)OCO2`, for which the relative growth was inactive: 0.996.

Take `O=C(CCCCC(=O)Nc1c(I)cc(I)c(C(=O)O)c1I)Nc1c(I)cc(I)c(C(=O)O)c1I`: the relative growth was inactive: 1.06.

In the case of `COc1oc(C(=O)NC2CCCCC2)c(-c2ccc(Cl)cc2)c1S(=O)(=O)c1cccc(Cl)c1`, the relative growth was inactive: 0.914.

Turning to `CO[C@H](CN(C)C(=O)c1ccc2c(c1)OCO2)[C@@H](C)CN([C@H](C)CO)S(=O)(=O)c1ccc(Cl)cc1`, the relative growth was inactive: 0.983.

As for `C[C@](N)(Cc1ccc(O)c(O)c1)C(=O)O`, the relative growth is inactive: 1.02.

Take `CO[C@@H]1CN(C)C(=O)c2cc(NC(=O)Nc3c(C)noc3C)ccc2OC[C@@H](C)N(C(=O)Nc2cccc(Cl)c2)C[C@H]1C`: the relative growth is inactive: 0.983.

Values taken from the supplement of paper PMC9446081.
